# Results as given in article PMC4336329 (PLoS ONE, 2015).
# Out of some 310,000 compounds screened, about 14,000 (4.5%) showed an effect of 50% or more. The effect is printed as a negative number. The list shows a part of the results.
# Target: human ether-à-go-go-related gene (hERG) potassium channel (human, UniProt Q12809)
# Assay: primary screen, population patch clamp on CHO cells stably expressing hERG
# 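Further: peak tail current of the secondary pulse compared with the same well before compound.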
# Chain of human ether-à-go-go-related gene (hERG) potassium channel (Q12809 whole entry, looked up): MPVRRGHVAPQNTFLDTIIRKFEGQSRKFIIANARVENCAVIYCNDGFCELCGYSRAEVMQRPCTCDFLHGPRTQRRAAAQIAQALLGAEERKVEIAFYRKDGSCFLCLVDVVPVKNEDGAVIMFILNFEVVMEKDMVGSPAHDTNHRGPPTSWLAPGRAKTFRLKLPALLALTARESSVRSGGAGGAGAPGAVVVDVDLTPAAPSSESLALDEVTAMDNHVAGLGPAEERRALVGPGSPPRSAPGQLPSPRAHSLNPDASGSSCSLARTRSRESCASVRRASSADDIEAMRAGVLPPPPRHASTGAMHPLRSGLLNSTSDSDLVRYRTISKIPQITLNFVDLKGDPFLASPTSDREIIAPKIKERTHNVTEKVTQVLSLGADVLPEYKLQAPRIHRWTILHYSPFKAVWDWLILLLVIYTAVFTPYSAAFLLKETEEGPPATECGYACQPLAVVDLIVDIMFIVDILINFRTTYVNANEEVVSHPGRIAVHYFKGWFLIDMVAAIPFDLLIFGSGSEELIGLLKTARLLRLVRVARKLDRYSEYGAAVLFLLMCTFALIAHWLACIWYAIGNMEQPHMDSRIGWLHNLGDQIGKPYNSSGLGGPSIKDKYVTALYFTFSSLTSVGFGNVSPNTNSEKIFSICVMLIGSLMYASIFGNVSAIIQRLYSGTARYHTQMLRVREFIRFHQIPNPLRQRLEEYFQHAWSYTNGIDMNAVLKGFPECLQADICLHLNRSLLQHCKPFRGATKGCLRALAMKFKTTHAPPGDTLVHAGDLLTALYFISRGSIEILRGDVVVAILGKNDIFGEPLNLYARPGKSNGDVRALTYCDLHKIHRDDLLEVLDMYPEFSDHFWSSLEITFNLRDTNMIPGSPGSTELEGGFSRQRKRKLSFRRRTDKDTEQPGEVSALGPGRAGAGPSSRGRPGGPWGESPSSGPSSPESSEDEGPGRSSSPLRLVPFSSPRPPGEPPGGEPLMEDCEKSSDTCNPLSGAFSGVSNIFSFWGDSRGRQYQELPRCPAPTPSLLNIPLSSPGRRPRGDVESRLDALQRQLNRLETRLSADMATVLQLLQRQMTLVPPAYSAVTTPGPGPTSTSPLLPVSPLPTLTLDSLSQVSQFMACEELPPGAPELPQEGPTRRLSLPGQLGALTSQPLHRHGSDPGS
row,SMILES,"hERG current change (%, negative = inhibition) at 10uM [%]"
1,O=C(NCC1COc2ccccc2O1)C1(c2ccccc2)CCCC1 (stereo not drawn),-28.2
2,COc1ccc(-c2nc(NC(=O)c3cc(C(C)(C)C)nn3C)sc2C)cc1,2.69
3,O=C(O)C1CCC(=O)N1Cc1ccccc1Cl (stereo not drawn),3.11
4,CCOc1ccccc1CN1CCN(S(C)(=O)=O)CC1.O=C(O)C(=O)O,-4.39
5,CC[C@H](C)[C@H](NC(=O)OCc1ccccc1)C(=O)OCC(=O)Nc1ccc(N2CCOCC2)cc1,10.7
6,COc1ccc(N2CCN(C(=O)c3ccc(CSc4ccccc4)cc3)CC2)cc1,17.1
7,CCOC(=O)CSc1nc(Cc2ccccc2)nc2ccccc12,-4.23
8,COc1ccc(-c2csc(C3=C(O)CN(C(C)C)C3=N)n2)cc1OC,-8.67
9,O=C(NC1CCCCCC1)C1c2ccccc2C(=O)N1CCCN1CCOCC1 (stereo not drawn),-13
10,CCOC(=O)N1CCN(C(=O)CSc2ccc3nnc(-c4ccccn4)n3n2)CC1,-36
11,CCOC(=O)c1oc2nc(C)c3c(c2c1N)CC(C)(C)OC3,16.1
12,CC(=O)CC(C)(C)Nc1nc2ccc([N+](=O)[O-])cc2o1,-3.22
13,CN(C)CCCNC(=O)/C(=C\c1ccc(-c2ccc(Br)cc2)o1)NC(=O)c1ccccc1,-75.1
14,Cc1cc(=O)[nH]c(-c2ccc(Cl)cc2)n1,6.84
15,O=C(Nc1ccc(-n2cccn2)cc1)C1CCCCN1Cc1cccc2c1OCO2 (stereo not drawn),-49.5
16,CCC(C)[C@H](NC(=O)NCCCn1ccnc1)C(=O)OC (stereo partly drawn),-1.53
17,CC(=O)N/C(=C\c1ccccc1)C(=O)OCc1cccc(S(=O)(=O)N(C)C)c1,-13.9
18,CCOc1ccccc1NC(=O)c1cccc2c1C(=O)N(C1CCCCC1)C2,9.57
19,CCN1CCN(c2ccc(S(=O)(=O)N3CCOCC3)cc2NC(=O)c2ccc(Cl)s2)CC1,-57.1
20,CN(C)c1nc(SCc2ccccc2)nc(N2CCOCC2)n1,-4.83
21,Cc1ccc(S(=O)(=O)NNC2CC(=O)N(c3ccc(Br)cc3)C2=O)cc1 (stereo not drawn),23.7
22,COc1ccc(C)cc1N(CC(=O)N/N=C/c1ccc2c(c1)OCO2)S(C)(=O)=O,6.53
23,O=C(CCC(=O)c1ccc(F)cc1)NC1CCCN(Cc2ccccc2F)C1 (stereo not drawn),-19.4
24,O=C(COC(=O)CNC(=O)C1CCCCC1)Nc1ccc(Cl)cn1,-10.2
